Measurements as given in article PMC4336329 (PLoS ONE, 2015).
Among all 310,000 compounds or so, about 2,200 (0.71%) showed an effect of 50% or more. The effect is printed as a negative number. The list shows a part of the results.

molecular target: human ether-à-go-go-related gene (hERG) potassium channel (human, UniProt Q12809); experiment: primary screen, population patch clamp on CHO cells stably expressing hERG
Sequence (Q12809 whole entry, looked up): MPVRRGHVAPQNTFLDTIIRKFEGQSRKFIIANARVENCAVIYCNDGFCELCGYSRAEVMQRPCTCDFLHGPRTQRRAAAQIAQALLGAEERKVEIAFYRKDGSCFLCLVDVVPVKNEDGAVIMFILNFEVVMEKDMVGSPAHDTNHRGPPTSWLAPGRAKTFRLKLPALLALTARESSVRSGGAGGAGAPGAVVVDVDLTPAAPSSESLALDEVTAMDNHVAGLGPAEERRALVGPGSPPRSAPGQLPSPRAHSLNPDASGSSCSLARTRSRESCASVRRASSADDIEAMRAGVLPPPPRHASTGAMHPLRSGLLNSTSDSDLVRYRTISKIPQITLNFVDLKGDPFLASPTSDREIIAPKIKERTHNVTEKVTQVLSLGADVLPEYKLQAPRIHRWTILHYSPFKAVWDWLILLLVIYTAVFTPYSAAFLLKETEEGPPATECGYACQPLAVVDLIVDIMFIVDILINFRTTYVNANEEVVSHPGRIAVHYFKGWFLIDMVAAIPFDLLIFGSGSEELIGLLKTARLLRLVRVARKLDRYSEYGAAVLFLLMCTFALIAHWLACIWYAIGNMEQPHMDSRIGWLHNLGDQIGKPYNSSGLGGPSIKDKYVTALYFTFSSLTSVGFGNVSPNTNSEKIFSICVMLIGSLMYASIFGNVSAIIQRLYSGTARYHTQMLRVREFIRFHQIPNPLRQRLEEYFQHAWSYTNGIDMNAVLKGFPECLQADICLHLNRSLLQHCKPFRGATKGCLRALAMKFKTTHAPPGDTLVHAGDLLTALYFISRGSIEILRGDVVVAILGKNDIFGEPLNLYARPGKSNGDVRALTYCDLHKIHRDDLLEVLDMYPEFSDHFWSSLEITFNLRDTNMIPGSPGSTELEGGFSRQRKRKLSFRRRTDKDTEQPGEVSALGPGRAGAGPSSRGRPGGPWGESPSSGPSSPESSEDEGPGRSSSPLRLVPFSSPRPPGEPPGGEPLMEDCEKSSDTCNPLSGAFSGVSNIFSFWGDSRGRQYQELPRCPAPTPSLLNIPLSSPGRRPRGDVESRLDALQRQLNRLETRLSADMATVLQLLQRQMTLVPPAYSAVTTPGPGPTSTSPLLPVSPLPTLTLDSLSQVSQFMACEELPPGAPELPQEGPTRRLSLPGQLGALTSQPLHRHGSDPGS

| Compound | hERG current change (%, negative = inhibition) at 1uM |
| --- | --- |
| Cc1ccc(CN2CCNC(=O)C2CC(=O)N(C)CCc2ccccc2)cc1 (centres unmarked) | 0.424% |
| CC(=C1C(=O)c2ccccc2C1=O)N1CCc2ccccc2C1 | -0.458% |
| Cc1ccccc1-c1nc(-c2cccnc2)no1 | 14.5% |
| CCCCSC1(SCCCC)N=C(N)C2(C#N)C(c3ccccc3)NC(C)=C(C)C12C#N (centres unmarked) | 0.597% |
| COC(=O)CN1C(=S)N(c2ccc(OC)cc2)C(=O)/C1=C/c1cccs1 | 22.5% |
| CCOc1cc([N+](=O)[O-])cc(/C=N/NC(=O)c2c(-c3ccccc3)noc2C)c1O | 11.4% |
| CCOC(=O)c1ccc(N2C(=O)CC(N3CCN(C(=O)c4ccco4)CC3)C2=O)cc1 (centres unmarked) | -5.28% |
| COc1ccc(CNC(=O)COC(=O)CC2CCCC2)cc1 | 21.6% |
| O=C(COc1ccc2ccccc2c1)N1CCN(c2ccccc2)CC1 | 22.2% |
| O=C(NNc1c(Cl)cc(Cl)cc1Cl)C1CCC1 | -0.906% |
| COCc1[nH]nc2c1C(c1c(F)cccc1Cl)C(C#N)=C(N)O2 (centres unmarked) | 11.3% |
| N#C/C(=N\Nc1cccc(C(F)(F)F)c1)C(=O)c1ccsc1 | 9.69% |
| O=C(Nc1ccc(O)cc1)c1ccc(C(=O)c2ccccc2)o1 | 7.07% |
| CCOc1ccc(CNC(=O)CCC(=O)N2Cc3cccc(OC)c3Oc3ncccc32)cc1 | 6.34% |
| CCOc1ccc(C(=O)NCC(=O)OCc2cc(C(C)=O)ccc2OC)cc1 | 12.2% |
| CCCN(CC1CC1)C(=S)NC(=O)c1ccc(S(=O)(=O)N2CCOCC2)cc1 | 8.97% |
| CCN(CC)C(=S)NCCc1ccccc1 | -1.37% |
| CCn1c(=O)cc(OCC(=O)NCCCN2CCCC2=O)c2ccccc21 | 16.7% |
| COc1ccccc1CN(C)C(=O)c1cccc(S(=O)(=O)N2CCCc3ccccc32)c1 | 4.34% |

| Compound | hERG current change (%, negative = inhibition) at 1uM |
| --- | --- |
| CC(C)Cn1c(-c2ccncc2)n[nH]c1=S | 14.6% |
| O=C1C(=O)c2ccccc2C(O)=C1CCCCl | 2.06% |
| COc1ccc(C)cc1NC(=O)CN1C(=O)c2ccccc2S1(=O)=O | 3.98% |
| CCCN1CCN(CCCNC(=O)CCNC(=O)Cn2ccc3ccccc3c2=O)CC1 | 12.1% |
| CC(=O)Nc1ccc(C(F)(F)F)cc1Cl | 3.91% |
| O=C(N/C=C/c1ccco1)Nc1cccc(Cl)c1 | 9.45% |
| COc1ccc2cc(C=O)n(C)c2c1 | 4.79% |
| CN1C2C=C3C(C#N)=C(N)C(C#N)(C#N)[C@@H](c4ccc(Cl)cc4)[C@@H]3C1CC2 (some centres unmarked) | -3.4% |
| Cc1cc(Br)ccc1SCC(=O)OCC(=O)Nc1ccccc1C#N | 11.8% |
| Cc1ccc(S(=O)(=O)NCc2csc(-c3cccs3)n2)cc1 | 11.9% |
| Cc1nn(Cc2cccc(C(=O)Nn3cc([N+](=O)[O-])cn3)c2)c(C)c1[N+](=O)[O-] | 6.29% |
| C/C(=N\NC(=S)NCc1ccccc1)c1ccco1 | 9.96% |
| CC(C)C[C@H](NC(=O)c1nc[nH]c1C(=O)N(C)Cc1ccccc1)C(=O)OCc1ccccc1 | 13.1% |
| COCc1nnc(NC(=O)c2cccs2)s1 | 14.4% |
| COc1ccccc1C(=O)N(Cc1ccccc1)c1ccc(C)cc1 | 16% |
| CCOC(=O)Cc1ccc(NC(=O)c2ccccc2Br)cc1 | 6.73% |
| O=C(COC(=O)[C@H](Cc1c[nH]c2ccccc12)NC(=O)c1cccs1)NCc1ccccc1 | -1.25% |
| Cc1cc(C)cc(C(=O)NCC(=O)OCC(=O)Nc2cccnc2Cl)c1 | -3.31% |
| O=C(/C=C/c1cccs1)c1cc(Cl)ccc1O | 13.3% |

| Compound | hERG current change (%, negative = inhibition) at 1uM |
| --- | --- |
| O=C(O)C(=O)O.c1ccc(-n2cccc2CNC2CCCCC2)cc1 | -1.33% |
| CNC(=O)n1cc(C)c(-c2cccs2)n1 | 4.06% |
| CC1CC(C)CN(C(=S)Nc2ccc(SC(F)F)cc2)C1 (centres unmarked) | -28.9% |
| CC(NS(=O)(=O)c1ccc2c(c1)OCCO2)c1ccccc1 (centres unmarked) | 6.11% |
| CC(=O)CSc1nnc2cc(C)c3ccccc3n12 | 14.9% |
| CCn1c(SCC(=O)N2CCN(c3ccccc3)CC2)nnc1-c1c[nH]c2ccccc12 | -4.06% |
| C=CCN(Cc1nc(-c2ccc(OC)cc2)no1)C(=O)c1ccc2c(c1)OCO2 | -1.66% |
| CCOc1ccccc1N1CCN(C2=C(NS(=O)(=O)c3cccs3)C(=O)c3ccccc3C2=O)CC1 | -1.73% |
| O=C(c1ccc(Cn2c(=O)[nH]c3ccccc3c2=O)cc1)N1CCN(c2ccccc2)CC1 | 10.5% |
| COc1cccc2sc(N(CCCN(C)C)C(=O)C(c3ccccc3)c3ccccc3)nc12.Cl | -11% |
| O=C(O)C(=O)O.O=[N+]([O-])c1ccc(S(=O)(=O)N2CCN(C3CCN(Cc4ccccc4)CC3)CC2)cc1 | -78.1% |
| CCOc1cc(CN2CCN(CCc3ccccc3)C(CCO)C2)ccc1OC (centres unmarked) | -30.6% |
| N/C(=N\S(=O)(=O)c1cccs1)c1ccccc1Cl | 11.7% |
| COc1cc(/C=C/c2ccc3cccc(O)c3n2)cc(Cl)c1OC | 21.6% |
| COc1cccc(CNC(=O)C2CCCN(S(=O)(=O)c3ccc4c(c3)C(C)(C)C(=O)N4C)C2)c1 (centres unmarked) | 13% |
| COc1ccc(C2c3ccc(O)cc3Oc3ncn4nc(-c5ccccn5)nc4c32)cc1 (centres unmarked) | 18.3% |
| N#CCSc1nnc(-c2cnccn2)n1Cc1ccccc1 | 16.3% |
| CC(C)(C)c1ccc(C(=O)Nc2ccc(O)c3c(=O)cc(-c4ccccc4Cl)oc23)cc1 | 3.83% |
